For 54 sequences, binding signal results are on record in PMC7819943, “Rice protein-binding microarrays: a tool to detect cis-acting elements near promoter regions in rice”.

This is one part of the list.

This experiment addresses T1, OsWOX13 (Oryza sativa, UniProt Q5QMM3 1-267).
T1 sequence: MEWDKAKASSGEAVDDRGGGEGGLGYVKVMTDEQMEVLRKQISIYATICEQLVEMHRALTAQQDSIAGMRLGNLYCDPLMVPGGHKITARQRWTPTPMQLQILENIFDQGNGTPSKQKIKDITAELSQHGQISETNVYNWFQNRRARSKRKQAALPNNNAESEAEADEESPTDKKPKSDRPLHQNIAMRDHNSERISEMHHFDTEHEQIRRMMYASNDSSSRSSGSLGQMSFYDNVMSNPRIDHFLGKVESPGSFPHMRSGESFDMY
Put plainly: protein-binding microarray (RPBM); PBS, 2% BSA, 51.3 ng/ul salmon testes DNA, 50 uM zinc acetate, 200 nM TF, 25 C, 1 h; high values mean tight binding. The following applies: protein: recombinant; tags: N-terminal polyhistidine and DsRed monomer fusion (pET32a); label: CyDye5-dUTP incorporated in the synthesized complementary strand; 3' TTTTT single-stranded linker to array surface; dsDNA, one strand shown. A digest of the protocol:
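The binding signal is fluorescence intensity per feature, in arbitrary units, read on an Axon 4000B scanner. Polyhistidine- and DsRed-tagged transcription factors (N-terminal fusions) from E. coli BL21-CodonPlus were purified on Ni–NTA and applied at 200 nM for 1 h at 25 °C to a double-stranded, BSA-blocked custom Agilent array in buffer with 50 µM zinc acetate.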
For the sequence “ATTTAATATGTACTAATCCATCATTGTAACCTACTTCCTCCGGAGTCACCTAGTGCAG”, the binding signal was 3180 fluorescence intensity (a.u.).

Regarding “GGTAATGATATATTGGTTTATTTGTCTTCTTACCTGCCAACGGAGTCACCTAGTGCAG”, the binding signal was 10400 fluorescence intensity (a.u.).

With “GGATTAATTAGGCTTAATAAATTCGTCTTGCAGTTTACAGCGGAGTCACCTAGTGCAG”, the binding signal was 22100 fluorescence intensity (a.u.).

Turning to “CTTAATTAGAATCTAAAGATCTCCAAACATTCCCTTTGTCCGGAGTCACCTAGTGCAG”, the binding signal was 35200 fluorescence intensity (a.u.).

Take “GCAATAATTGGCTGTATCTCTATTGAGCAAAGGCCGGGATCGGAGTCACCTAGTGCAG”: the binding signal is 36100 fluorescence intensity (a.u.).

Take “GCCTTCTAAATTGACCAATCTTTCAAGCAAGAATGAAGTTCGGAGTCACCTAGTGCAG”: the binding signal is 12400 fluorescence intensity (a.u.).

Turning to “CGAATCAAGCAGATAGATTGAAACGCTGACAAAACACTGGCGGAGTCACCTAGTGCAG”, the binding signal is 25100 fluorescence intensity (a.u.).

As to “AAAATTAATTGTATTGGTTTTAATGTCATAGAGACGACGACGGAGTCACCTAGTGCAG”, the binding signal was 35500 fluorescence intensity (a.u.).

For the sequence “TGTGTCTCGTTTAATACTGATTACTATATTTTCAGGATGACGGAGTCACCTAGTGCAG”, the binding signal is 4280 fluorescence intensity (a.u.).

For the sequence “AATCTTATCTTAATTATCGTCATTATCTATAACTAATGATCGGAGTCACCTAGTGCAG”, the binding signal is 7430 fluorescence intensity (a.u.).

Turning to “AACACCATACCAAAATCCAAATATACTTATATTTTACTTACGGAGTCACCTAGTGCAG”, the binding signal was 65000 fluorescence intensity (a.u.).

On to “CACCACTCCATCTCCTTAATTGCACTTCCATTTCACCTCACGGAGTCACCTAGTGCAG”, for which the binding signal was 5200 fluorescence intensity (a.u.).

For the sequence “TGTTAATGAATCTAGATAGATATATATGTCTAGATTCATTCGGAGTCACCTAGTGCAG”, the binding signal was 9740 fluorescence intensity (a.u.).

With “GCCATGGTGATTACGAAATTAACATGTAGTACTACTAGTTCGGAGTCACCTAGTGCAG”, the binding signal was 20000 fluorescence intensity (a.u.).

For “ATATATTGACGATTTAGTCTCTTTCAAACATGAGGATTAGCGGAGTCACCTAGTGCAG”, the binding signal is 6970 fluorescence intensity (a.u.).

As for “TGAAAACGTTGATGATAGGATCAATTCCCAATTCTTCTGTCGGAGTCACCTAGTGCAG”, the binding signal was 3460 fluorescence intensity (a.u.).

As to “AAGGTTAGTGATTAGCAATAGTGTACTCCGCCTCGTCACACGGAGTCACCTAGTGCAG”, the binding signal is 16900 fluorescence intensity (a.u.).

As for “GTTAGATTAGAACTAGCTATTTTGCATCAACTTAGTGAATCGGAGTCACCTAGTGCAG”, the binding signal was 12800 fluorescence intensity (a.u.).

Take “GCAGGGCAACGCAGCATGATTGATTTCGTCATTCTCCTCTCGGAGTCACCTAGTGCAG”: the binding signal is 9820 fluorescence intensity (a.u.).

Regarding “TAAATTTAACATTAAATATATTTTGATACAATGTTTGTTTCGGAGTCACCTAGTGCAG”, the binding signal is 4380 fluorescence intensity (a.u.).

Consider “TAAATTTGGTTACTAAACATCTCAATCAGGACTTTCCTTTCGGAGTCACCTAGTGCAG”, for which the binding signal is 4320 fluorescence intensity (a.u.).

With “CAAAATTTAGAAATTAGAATTTGAGATTCTAAACATCAAACGGAGTCACCTAGTGCAG”, the binding signal is 3520 fluorescence intensity (a.u.).

As to “TTCCCCGGCCTCAATCACGCTTCCAGCAGTCTCCCCTGTGCGGAGTCACCTAGTGCAG”, the binding signal was 5370 fluorescence intensity (a.u.).

Regarding “ATATTGATTTTGTATCTAAAGAACAGACTTACATACTACGCGGAGTCACCTAGTGCAG”, the binding signal was 12000 fluorescence intensity (a.u.).

Consider “ATAATTACTGTTTTAATCACGTGATTTCGGATTCACCAACCGGAGTCACCTAGTGCAG”, for which the binding signal is 25200 fluorescence intensity (a.u.).

Turning to “CTTGATTAGTACAGTATAATATCAAACATGCAGAAGTTAACGGAGTCACCTAGTGCAG”, the binding signal was 17200 fluorescence intensity (a.u.).

On to “CCACCTAACACTAATCAACCAGTCAACCACCACATCTTCCCGGAGTCACCTAGTGCAG”, for which the binding signal is 8120 fluorescence intensity (a.u.).

In the case of “CGTAGAAGGGATTGGGTGAAATTACATGGGCATATAGGGACGGAGTCACCTAGTGCAG”, the binding signal was 4240 fluorescence intensity (a.u.).

Turning to “ATAAAATTTCTGATTAATTACTCCACTGTTTTACTTCTCTCGGAGTCACCTAGTGCAG”, the binding signal was 25100 fluorescence intensity (a.u.).

Regarding “CAATCTAATCATGGATTCCTCCTAACCAATCTCCATCAGCCGGAGTCACCTAGTGCAG”, the binding signal was 5700 fluorescence intensity (a.u.).

In the case of “ACTTGTGGAGGTAATTAATTAGGAGCCTAGACTTGTACTACGGAGTCACCTAGTGCAG”, the binding signal was 9480 fluorescence intensity (a.u.).

Take “TCGAAAATTGGTTTTGTTAATATACTAGGACTGATTTCAGCGGAGTCACCTAGTGCAG”: the binding signal is 6190 fluorescence intensity (a.u.).

“TGCAAATTGGATCATAACATCGTGGTTACGTGAAATTTACCGGAGTCACCTAGTGCAG”: the binding signal was 15500 fluorescence intensity (a.u.).

On to “TGAATGTAATTATTATAGGGTCACATTGCTGGAGATGCGACGGAGTCACCTAGTGCAG”, for which the binding signal is 3540 fluorescence intensity (a.u.).

In the case of “CTTTTAATTTTAGTATTCAAGAATGAATTCCTCCTGCAACCGGAGTCACCTAGTGCAG”, the binding signal is 7790 fluorescence intensity (a.u.).

On to “CGCTTAAATTTAAGAACCGACTCTTTATATTATTGTGCGACGGAGTCACCTAGTGCAG”, for which the binding signal was 12000 fluorescence intensity (a.u.).

On to “GGTGTGATTATGCAGATGGGTTAGGTTGCACCGACGGGTGCGGAGTCACCTAGTGCAG”, for which the binding signal is 23400 fluorescence intensity (a.u.).

Turning to “CAGTTTTGGTTAATTAAGTAAATAATTGTCCTCAGAAAGTCGGAGTCACCTAGTGCAG”, the binding signal is 15100 fluorescence intensity (a.u.).

“GTATAGTTAATCACATAATAGAGATACATGGAAGTTGCAGCGGAGTCACCTAGTGCAG”: the binding signal is 5500 fluorescence intensity (a.u.).

With “ACACTATTAATTATCATGAACACTGGCACATGAATATAAACGGAGTCACCTAGTGCAG”, the binding signal is 3770 fluorescence intensity (a.u.).

On to “TTCCTAATTGGAGCCGGATTTTGTGGCCGTAGAGCTGCCTCGGAGTCACCTAGTGCAG”, for which the binding signal is 43400 fluorescence intensity (a.u.).

For the sequence “CCCCTGACTATCCCTCAAATTTCATTCCTTTTCTTTTCCTCGGAGTCACCTAGTGCAG”, the binding signal is 3390 fluorescence intensity (a.u.).

Take “GTAATAACCTGATGGACAGGAGAAGCATAGCATTGCAGCACGGAGTCACCTAGTGCAG”: the binding signal was 3790 fluorescence intensity (a.u.).

Consider “TCAATCCAATCCGGCTGGTAATTAAACAACACGAGCGCAGCGGAGTCACCTAGTGCAG”, for which the binding signal was 6090 fluorescence intensity (a.u.).

As for “TTGCTGAATTGATGACTTCCGCTCCTGGATTGCATGCATGCGGAGTCACCTAGTGCAG”, the binding signal is 11900 fluorescence intensity (a.u.).

Turning to “GACTAATTAGGCTCAAAATATTCGTGTCGCGATTTTCATGCGGAGTCACCTAGTGCAG”, the binding signal is 23200 fluorescence intensity (a.u.).

For “CATTTCATTAATTTAAAAGTAATTTATTTAAATTGTAGTACGGAGTCACCTAGTGCAG”, the binding signal is 21500 fluorescence intensity (a.u.).

In the case of “ACCACCATTGATTAACACGACTTTAACTTAGACTATCAATCGGAGTCACCTAGTGCAG”, the binding signal is 16400 fluorescence intensity (a.u.).

Take “ACTTGTCAATTTCCCATCACAAAGAACTAAAACCACCCATCGGAGTCACCTAGTGCAG”: the binding signal is 9180 fluorescence intensity (a.u.).

For the sequence “TCATAATGCTGTTCTAAATAGATTTGTTATATCCATCACACGGAGTCACCTAGTGCAG”, the binding signal is 4570 fluorescence intensity (a.u.).

On to “CAAATCAGGCGCAATTAGACTTAAAAGATTCGTCTCGTAACGGAGTCACCTAGTGCAG”, for which the binding signal is 6690 fluorescence intensity (a.u.).

For “AGCACAAATCAAGCAAACCAATCTCTTCCCGTCTTTCTCGCGGAGTCACCTAGTGCAG”, the binding signal was 3980 fluorescence intensity (a.u.).

As for “GTTGATTCATAATCTCTATTGATATCGAATCATTTATTCACGGAGTCACCTAGTGCAG”, the binding signal is 4490 fluorescence intensity (a.u.).

“CCACCTGTGATTGAAAACAATTACTTTTGAACATGCGCAGCGGAGTCACCTAGTGCAG”: the binding signal is 55200 fluorescence intensity (a.u.).
